Results taken from PubChem BioAssay (NCATS).
The shares of active, inactive and inconclusive entries below differ from those in the screen. No potency is given beside an inconclusive call; the fits are too rough. Activity calls are given as the source filed them. Calls come from the whole dose curve; as a rule, active = well fitted cell-killing curve with a large enough effect; inconclusive = small, poorly fitted or top-dose-only effect; inactive = no such curve, though single readings can be large or run the other way.

How the values were obtained:
[1] = qHTS of pediatric cancer cell lines to identify multiple opportunities for drug repurposing: Primary screen for OHS-50 cells (AID 1347103); conditions: OHS-50 osteosarcoma viability, CellTiter-Glo luminescence, 48 h; series mostly up to 57.3 µM; note: nearly all actives have a fitted effect of over 40% in size
In short: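 Cells (500-1,000/well) rested 5 h, then received compounds for 48 h; metabolically active cells were measured by CellTiter-Glo luminescence. Final concentrations spanned up to 46 µM (MIPE, 11-point) or 0.59 nM-46 µM (NPC, 8-point) in primary screens, 11-point in follow-ups.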

[2] = qHTS of pediatric cancer cell lines to identify multiple opportunities for drug repurposing: Primary screen for Rh41 cells (AID 1347108); note: nearly all actives have a fitted effect of over 70% in size
In short: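 Cells plated at 500-1,000/well in growth medium, compounds added after 5 h. MIPE tested at 11 points (from 0.78 nM), NPC at 8 points (from 0.59 nM). CellTiter-Glo luminescence after 48 h; concentration-response curves from primary screen.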
Potency is the fitted concentration of half-maximal effect; tags give direction and shape of the fitted curve.

Row | SMILES | Potency [1] | Potency [2]
1 | Nc1ccc(Cl)cc1C(=O)c1ccccc1F | inconclusive [cytotoxic, single point] | inactive
2 | C[C@]12CCC(=O)C(O)=C1CC[C@@H]1[C@H]3CCC(=O)[C@@]3(C)CC[C@@H]12 | inconclusive [cytotoxic, partial curve, poor fit] | inconclusive [cytotoxic, partial curve, poor fit]
3 | C[C@]12Cc3cn[nH]c3C[C@@H]1CC[C@@H]1[C@@H]2CC[C@@]2(C)[C@H]1CC[C@]2(C)O | inconclusive [cytotoxic, single point] | inconclusive [cytotoxic, single point]
